# Source: article PMC4336329 (PLoS ONE, 2015)
# Screen size: about 310,000 compounds; about 14,000 (4.5%) showed an effect of 50% or more. Effects have a minus sign here. The list shows a part of the results.
# Biological target: human ether-à-go-go-related gene (hERG) potassium channel (human, UniProt Q12809)
# Test: primary screen, population patch clamp on CHO cells stably expressing hERG
# 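Further: peak tail current of the secondary pulse compared with the same well before compound.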
# human ether-à-go-go-related gene (hERG) potassium channel, sequence (Q12809 whole entry, looked up): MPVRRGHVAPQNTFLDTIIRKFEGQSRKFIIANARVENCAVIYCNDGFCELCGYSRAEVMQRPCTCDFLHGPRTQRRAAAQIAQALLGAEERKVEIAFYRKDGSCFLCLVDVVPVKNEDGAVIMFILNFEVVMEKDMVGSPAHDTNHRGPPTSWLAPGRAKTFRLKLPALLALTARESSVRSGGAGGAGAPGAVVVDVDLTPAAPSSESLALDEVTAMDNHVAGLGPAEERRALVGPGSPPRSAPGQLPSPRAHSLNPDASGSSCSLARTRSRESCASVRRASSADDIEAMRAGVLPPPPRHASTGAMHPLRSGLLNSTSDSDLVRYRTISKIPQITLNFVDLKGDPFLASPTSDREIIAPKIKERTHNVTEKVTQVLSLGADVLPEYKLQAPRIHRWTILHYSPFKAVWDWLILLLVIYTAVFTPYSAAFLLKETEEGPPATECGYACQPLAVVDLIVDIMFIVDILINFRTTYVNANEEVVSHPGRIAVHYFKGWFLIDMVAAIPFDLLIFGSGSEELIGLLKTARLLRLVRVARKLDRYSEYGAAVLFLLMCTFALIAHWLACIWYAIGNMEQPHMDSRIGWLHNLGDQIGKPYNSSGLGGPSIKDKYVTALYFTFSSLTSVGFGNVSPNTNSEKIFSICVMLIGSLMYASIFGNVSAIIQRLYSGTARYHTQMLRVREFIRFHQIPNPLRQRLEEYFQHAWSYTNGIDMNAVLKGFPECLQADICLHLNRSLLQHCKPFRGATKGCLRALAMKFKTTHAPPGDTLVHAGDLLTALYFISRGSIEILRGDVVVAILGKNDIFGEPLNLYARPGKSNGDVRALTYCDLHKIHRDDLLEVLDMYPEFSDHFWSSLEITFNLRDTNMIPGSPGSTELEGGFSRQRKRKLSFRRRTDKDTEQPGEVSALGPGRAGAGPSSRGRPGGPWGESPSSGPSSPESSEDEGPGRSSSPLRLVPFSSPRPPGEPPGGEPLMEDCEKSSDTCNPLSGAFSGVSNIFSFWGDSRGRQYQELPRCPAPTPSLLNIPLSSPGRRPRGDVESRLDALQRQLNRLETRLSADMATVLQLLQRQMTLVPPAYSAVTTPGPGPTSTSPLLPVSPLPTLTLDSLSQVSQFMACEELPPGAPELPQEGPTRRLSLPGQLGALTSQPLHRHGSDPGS
row,Structure (SMILES),"hERG current change (%, negative = inhibition) at 10uM [%]"
1,CCOC(=O)c1sc(NC(=O)C2CCCCC2)nc1C,5.94
2,O=C(NN1C(=O)C2C3C=CC(O3)C2C1=O)c1cccc(O)c1 (centres unmarked),-7.19
3,O=C1NCCNC1(c1c[nH]c2ccccc12)C(F)(F)F (centres unmarked),8.97
4,Cc1ccc(NC(=O)CNC(=O)c2sc3ccccc3c2Cl)nc1,8.63
5,COc1ccc(NC(=O)CN2CCN(CC(=O)Nc3ccccc3Cl)CC2)cc1,-74.1
6,COc1ccc(C2/C(=C(/O)c3ccccc3)C(=O)C(=O)N2C)c(OC)c1 (centres unmarked),23.2
7,CCc1cc(CNC(=O)c2ccc(OC3CCN(CCc4ccccc4)CC3)cc2)on1,-75.5
8,CCOC(=O)c1c(CN2CCOCC2)oc2ccc(OC)cc12,-7.29
9,COCC1CCN(C(=O)c2cc(COc3ccc(-n4cncn4)cc3)on2)CC1,-26.5
10,Cc1ccc2nc3nc(NCC4CCCO4)c(C(=O)NC4CCCC4)cc3c(=O)n2c1 (centres unmarked),-75.6
11,Nn1c(Cc2ccccc2)nc2sc3c(c2c1=O)CCC3,-11.2
12,CCOC(=O)c1c(-c2ccccc2)csc1NC(=O)C(C)NCCCN1CCOCC1.O=C(O)C(=O)O (centres unmarked),-12.5
13,CC(C)c1ccc(Nc2nnc(SC3CCOC3=O)s2)cc1 (centres unmarked),-0.398
14,CC(C)c1ccc(/C=C2\SC(=S)N(CC(=O)NCCCN3CCOCC3)C2=O)cc1,12
15,O=C(c1ccc(F)c(S(=O)(=O)N2CCOCC2)c1)N1CCN(c2ccc(F)cc2)CC1,-60.5
16,Nc1ccc2oc3ncccc3c(=O)c2c1,8.33
17,COc1ccccc1OC(C)C(=O)N(Cc1ccco1)C1CCS(=O)(=O)C1 (centres unmarked),-9.12
18,O=C(NNC(=O)C1CCCO1)c1ccc(Cl)cc1 (centres unmarked),0.563
19,O=c1[nH]n(-c2ccc(F)cc2)c2ncccc12,6.73
20,COc1ccc(CNC(=O)N2CCN(S(=O)(=O)c3ccccc3)CC2)cc1,-9.74
21,Cc1cnc(NC(=O)CSc2nnc(Cc3ccccc3)o2)s1,13.4
22,COc1ccccc1/C=N/NC(=O)c1sc(C)nc1C,15.2

row,Structure (SMILES),"hERG current change (%, negative = inhibition) at 10uM [%]"
1,COc1ccc(/C(=C/c2ccc(OC(F)F)c(OC)c2)C(=O)O)cc1OC,-3.94
2,CCNC(=O)C/C(C)=N/NC(=O)C1CCCCC1,4
3,COCCN(Cc1nc(C(c2ccccc2)c2ccccc2)no1)C(C)C,2.93
4,COC(=O)CNC(=O)c1c(-c2ccccc2Cl)noc1C,-5.68
5,O=C(CC1C(=O)NCCN1CCCc1ccccc1)NCCc1ccccc1F (centres unmarked),-1.8
6,COc1ccc(C(=O)Nc2cccc(OC(=O)c3ccco3)c2)cc1,17.4
7,NC(=O)c1ccsc1NC(=O)COC(=O)COc1ccc(C=O)cc1,6.23
8,Cc1ccc2c(c1)N(C(=O)CCC(=O)N1CCCCC1)CCO2,-14.5
9,CC(C)COC(=O)/C(C#N)=C/c1cn(Cc2ccccc2)c2ccccc12,16.9
10,Cc1ccc2nc(-c3ccccc3)cc(C(=O)NNC(=O)c3csc(N4CCOCC4)n3)c2c1,-1.6
11,CC(C)(C)c1cc2cccnc2n1Cc1cccc(F)c1,-30.6
12,COc1cccc2c1C(=O)c1ccc3ccccc3c1C2=O,10
13,c1ccc(Oc2cccc(OCCCn3cncn3)c2)cc1,-22.5
14,Cn1cc(Br)c(C(=O)NNC(=O)c2ccccc2)n1,-2.02
15,CC(C)C(NS(=O)(=O)c1ccccc1)C(=O)OCc1cc([N+](=O)[O-])cc2c1OCOC2 (centres unmarked),-3.66
16,Nc1ccc(Nc2ccccc2)cc1,1.98
17,CCOC(=O)Cc1csc(NC(=S)NC(=O)C(C)(C)C)n1,-15.4
18,C/C(=N\NC(=O)c1c(Cl)cnn1C)c1cccc(NC(=O)C(C)C)c1,-9.09
19,CCn1ncc(Br)c1C(=O)Nc1ccc2c(c1)OCCO2,4.95
20,Cc1cccc(NC(=O)[C@@H]2CCCN2C2=NS(=O)(=O)c3ccccc32)c1C,-17.3
21,CC(CN1CCOCC1)(NS(=O)(=O)c1ccccc1)c1ccccc1 (centres unmarked),-21
22,Cc1cccc(C)c1NC(=O)COC(=O)C1C2CC3OC(=O)C1C3C2 (centres unmarked),24.7
